In paper PMC4336329 (PLoS ONE, 2015):
Hit rate of the full screen: of about 310,000 compounds, about 14,000 (4.5%) showed an effect of 50% or more. The effect is printed as a negative number. Some of the results follow.

Target: human ether-à-go-go-related gene (hERG) potassium channel (human, UniProt Q12809)
Assay: primary screen, population patch clamp on CHO cells stably expressing hERG
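Further: peak tail current of the secondary pulse compared with the same well before compound.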

Sequence of human ether-à-go-go-related gene (hERG) potassium channel (Q12809 whole entry, looked up): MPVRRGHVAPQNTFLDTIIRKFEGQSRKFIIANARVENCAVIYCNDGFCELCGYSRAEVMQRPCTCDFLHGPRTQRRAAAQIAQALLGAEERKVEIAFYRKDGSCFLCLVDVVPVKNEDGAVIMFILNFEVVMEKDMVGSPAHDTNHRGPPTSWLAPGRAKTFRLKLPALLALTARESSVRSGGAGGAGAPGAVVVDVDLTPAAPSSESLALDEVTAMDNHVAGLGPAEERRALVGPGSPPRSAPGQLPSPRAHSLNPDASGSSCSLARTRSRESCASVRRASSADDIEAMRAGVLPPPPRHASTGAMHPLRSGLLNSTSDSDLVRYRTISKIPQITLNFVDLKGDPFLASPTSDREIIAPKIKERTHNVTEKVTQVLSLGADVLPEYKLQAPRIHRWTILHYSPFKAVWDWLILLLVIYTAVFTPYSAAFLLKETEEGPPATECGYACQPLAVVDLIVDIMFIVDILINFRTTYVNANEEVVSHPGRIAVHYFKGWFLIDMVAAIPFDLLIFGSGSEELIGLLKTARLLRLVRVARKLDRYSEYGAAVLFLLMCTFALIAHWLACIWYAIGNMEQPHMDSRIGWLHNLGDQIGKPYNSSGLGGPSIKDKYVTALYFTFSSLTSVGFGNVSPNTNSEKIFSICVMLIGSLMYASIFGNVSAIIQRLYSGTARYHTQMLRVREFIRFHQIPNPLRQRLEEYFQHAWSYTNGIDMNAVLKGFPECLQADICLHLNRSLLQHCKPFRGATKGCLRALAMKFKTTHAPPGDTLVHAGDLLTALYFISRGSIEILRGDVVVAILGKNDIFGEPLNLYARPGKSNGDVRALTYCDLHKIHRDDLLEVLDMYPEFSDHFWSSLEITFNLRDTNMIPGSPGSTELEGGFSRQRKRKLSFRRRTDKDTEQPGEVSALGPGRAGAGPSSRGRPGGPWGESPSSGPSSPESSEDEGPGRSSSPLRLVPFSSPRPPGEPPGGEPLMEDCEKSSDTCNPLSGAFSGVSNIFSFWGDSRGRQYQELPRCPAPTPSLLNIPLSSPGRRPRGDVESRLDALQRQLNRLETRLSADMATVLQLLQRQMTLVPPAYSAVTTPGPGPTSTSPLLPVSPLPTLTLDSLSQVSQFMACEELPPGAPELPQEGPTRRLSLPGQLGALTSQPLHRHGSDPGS

| Structure (SMILES) | hERG current change (%, negative = inhibition) at 10uM [%] |
| --- | --- |
| O=C1C(=O)N(CCN2CCOCC2)C(c2ccc([N+](=O)[O-])cc2)/C1=C(/O)c1ccc2c(c1)OCO2 (centres unmarked) | 17 |
| Cc1c(C(C)C)c(=O)n(-c2ccc(S(=O)(=O)NC(C)C)cc2)n1C | 11.3 |
| CCCCNC(=O)c1ccc(CS(=O)(=O)c2ccccc2OC)o1 | -2.53 |
| Cc1ccc(C)c(OCCCNC2CCCC2)c1C.O=C(O)C(=O)O | -10.3 |
| O=C(O)Cc1csc(-c2ccc(F)cc2)n1 | 11.5 |
| Cc1cccc(NC(=O)COC(=O)c2cccs2)c1C | 18.4 |
| Cc1cc(OCCCn2ccnc2)ccc1C(C)C | 14 |
| CSc1nc(C)c2c(c1C#N)CCCC2 | -4.98 |
| CC(=O)c1c(C)[nH]c(C(=O)NCc2ccccn2)c1C | 16.8 |
| COc1ccc(N(C(=O)c2ccco2)C(C(=O)NC2CCCCC2)c2cccs2)cc1OC (centres unmarked) | -8.89 |
| Cc1csc(=O)n1CCC(=O)OCC(=O)Nc1ccc(Cl)cn1 | -21.9 |
| COc1ccccc1NC(=O)COc1ccc(/C=N/NC(=O)CSCc2ccc(Cl)cc2)cc1 | -4.1 |
| COc1ccc([N+](=O)[O-])cc1NC(=O)Cc1ccc(Cl)cc1 | 3.93 |
| Cc1ccccc1OCCn1c(=S)[nH]c2c(N)ncnc21 | 21 |
| Cc1occc1-c1nnc(SCC(=O)NCc2cccs2)n1-c1ccc(F)cc1 | -60.2 |
| O=C(COC(=O)CCC1CCCC1)Nc1ccccc1Br | 5 |
| CC(=O)Nc1ccccc1OCC(=O)c1cc(C)n(Cc2cccs2)c1C | -21 |
| CCC(C)C(NC(=O)C1CCC(=O)N1C(=O)OCc1ccccc1)C(=O)NC(C(=O)N1CCCC1C(N)=O)C(C)CC (centres unmarked) | 10.9 |
| COc1cccc(S(=O)(=O)N2CCOCC2)c1 | -2.38 |
| O=C(/C=C/c1ccco1)NCCCN1CCOCC1 | 12.9 |
| COC(=O)Nc1sccc1C(=O)Nc1sccc1C(=O)OC | 1.71 |
| COc1ccccc1N1C(=S)N=C(Nc2c(C)cccc2C)C12CCCC2 | 10.5 |
| CC1CCCC(C)N1C(=O)CSc1nnc(C2CCCCC2)o1 (centres unmarked) | -8.48 |

| Structure (SMILES) | hERG current change (%, negative = inhibition) at 10uM [%] |
| --- | --- |
| O=C(/C=C/c1ccc(S(=O)(=O)N2CCOCC2)cc1)NC(=S)Nc1ccc(N2CCOCC2)cc1 | 18.5 |
| Cc1cccc(N2CCN(C(=O)Cc3ccc(Br)cc3)CC2)c1C | -11.3 |
| Cc1ccc(/C=C/c2ccc(=O)n(Cc3ccc(F)cc3)n2)cc1 | 2.5 |
| COc1ccc(/C=C2/Sc3ccc(C(=O)N4CCc5ccccc5C4)cc3NC2=O)cc1 | 3.04 |
| CC(=O)Nc1nc(-c2ccccc2)nc(C)c1C(C)=O | -5.89 |
| c1ccc2sc(C3CCN(Cc4nnnn4Cc4ccc5c(c4)OCO5)CC3)nc2c1 | -8.73 |
| COc1ccccc1CNC(=O)CCn1c(=O)[nH]c2ccsc2c1=O | 0.279 |
| Cc1cccc(N2CCN(C(=O)CSc3nc4ccccc4nc3N3CC(C)OC(C)C3)CC2)c1C (centres unmarked) | 10.5 |
| O=C(NCC1COc2ccccc2O1)C1CCN(S(=O)(=O)c2cccc3nsnc23)CC1 (centres unmarked) | 4.15 |
| O=C(NC1CCN(S(=O)(=O)c2ccc(F)cc2)CC1)c1ccco1 | 16.8 |
| CN(C)c1ccc(C2N(C)C(=O)c3ccccc3N2C)cc1 (centres unmarked) | 7.9 |
| O=C(N/C(=C\c1cccs1)C(=O)N1CCOCC1)c1ccco1 | 0.17 |
| Cc1cc(C)cc(NC(=O)C2(c3cccs3)CCOCC2)c1 | -8.59 |
| Cc1nc(CNS(=O)(=O)c2ccc3c(c2)OCCO3)cs1 | 3.18 |
| C/C(=N\NC(=O)C(=O)Nc1c(C)n(C)n(-c2ccccc2)c1=O)c1ccncc1 | -5.94 |
| CC(=O)ON1C(C)(C)CC(OC(=O)c2ccccc2)CC1(C)C | 7.94 |
| C/C=C/C(=O)Nc1ccccc1Br | 3.23 |
| COc1cc(OC)c(C(=O)OCC(=O)Nc2nnc(-c3ccccc3)o2)cc1OC | 6.07 |
| O=C(Nc1cccc(S(=O)(=O)N2CCCCC2)c1)C1CCCN1S(=O)(=O)c1ccccc1F (centres unmarked) | -7.07 |
| COC(=O)c1ccc(NC(=S)NNC(=O)CC(C)C)cc1 | 14.2 |
| O=C(NC1CCN(C(=S)NCc2ccco2)CC1)c1cccc(F)c1 | -47.1 |
| Cc1cc(-c2ccccc2)c2nncn2n1 | 7.69 |
| COc1ccc(Nc2c(-c3ccco3)nc3cccc(C)n23)cc1 | 8.67 |

| Structure (SMILES) | hERG current change (%, negative = inhibition) at 10uM [%] |
| --- | --- |
| Cc1ccc(N/C=C(/C#N)c2ccsc2)cc1C | 0.958 |
| CN(CC1COc2ccccc2O1)C(=O)c1cccc(S(=O)(=O)N2CCCC2)c1 (centres unmarked) | -19.7 |
| COc1ccc(NC(=O)CCCn2c(=O)c3sccc3n(Cc3ccc(C)cc3)c2=O)cc1 | -5.72 |
| COC(=O)c1ccccc1OCC(=O)N1CCN(c2ccc(OC)cc2)CC1 | -11.3 |
| O=C(NCc1ccccc1)c1ccc(=O)[nH]n1 | -0.706 |
| O=C(Nc1cc(S(=O)(=O)N2CCOCC2)ccc1O)c1ccc2c(c1)S(=O)(=O)c1ccccc1C2=O | 31.2 |
| CN(C(=O)c1ccccc1C(=O)OCC(=O)Nc1ccc(S(N)(=O)=O)cc1)c1ccccc1 | -5.32 |
| CN(C)S(=O)(=O)n1ccnc1 | 6.16 |
| N#Cc1ccccc1S(=O)(=O)N1CCN(S(=O)(=O)c2ccc(Br)c(C(=O)O)c2)CC1 | 5.73 |
| CCN(CC(=O)Nc1ccccc1C(F)(F)F)C(=O)CCc1c(C)[nH]c(=O)c(C#N)c1C | 24.1 |
| Oc1ccc(-c2[nH]ncc2-c2ccc(Br)cc2)c(O)c1 | 7.08 |
| CCOc1ccc(CCNC(=O)CN2C(=O)CCSc3ccccc32)cc1 | -7.76 |
| COc1cccc(C2C3(C#N)C(N)=NC(OC)(OC)C23C#N)c1 (centres unmarked) | 9.01 |
| Cc1ccc(S(=O)(=O)Nc2cccc(C(=O)NCc3cccnc3)c2)cc1F | 9.69 |
| Cc1ccc(CNC(=O)COC(=O)CCCOc2ccc(Cl)cc2Cl)cc1 | 30.6 |
| O=C(NNC(=O)c1cc(-c2ccccc2)nn1-c1ccccc1)c1ccccc1 | -43.6 |
| O=C(O)c1ccc(NS(=O)(=O)c2ccc3nnn(O)c3c2)cc1 | -0.0153 |
| CC(=NCC1CCNCC1)C1=C(O)CC(C)(C)CC1=O | 17.1 |
| O=C(Nc1ccccc1N1CCCCC1)C1CCN(S(=O)(=O)c2ccccc2C(F)(F)F)CC1 | -4.19 |
| CN(C(=O)CCc1ccccc1)c1nnc(-c2ccncc2)s1 | -2.67 |
| Cc1ccc(/C=C/S(=O)(=O)NCC(=O)OCC(=O)Nc2c(F)cccc2F)cc1 | 10.9 |
| O=C(CN1C(=O)CCS(=O)(=O)c2ccccc21)NCc1ccc2c(c1)OCO2 | -2.31 |
| Cl.O=C(Cc1ccccc1)OCCN1CCOCC1 | 20.4 |

| Structure (SMILES) | hERG current change (%, negative = inhibition) at 10uM [%] |
| --- | --- |
| CCN1CCN(c2cc3c(cc2F)c(=O)c(C(=O)O)cn3C2CC2)CC1 | 7.09 |
| CCCSCCCNC(=O)c1ccccc1NC(=O)C1=CSCCO1 | -22 |
| COc1cccc(CNCCc2cccc(F)c2)c1OC.O=C(O)C(=O)O | -5.22 |
| Cc1ccc(S(=O)(=O)NCc2ccc(C(=O)N(C)CCC#N)cc2)cc1 | -3.27 |
| Cc1cccc(OCCNc2cc(N3CCOCC3)ccc2[N+](=O)[O-])c1 | -12.8 |
| COc1ccc(CN2CCC(CNC(=O)NC3CCCCC3)CC2)cc1 | -67.7 |
| Nc1c(NC=O)c(=O)n(Cc2ccccc2)c(=O)n1Cc1ccccc1 | 12.6 |
| CCCCCSc1nc(C)c(CC(=O)O)c(=O)[nH]1 | 9.98 |
| CCC(C)NC(=O)c1ccccc1NC(=O)CN1C(=O)c2ccccc2S1(=O)=O (centres unmarked) | -16.9 |
| COc1ccc(N2CCN(C(=O)c3c(-c4ccccc4)noc3C)CC2)cc1 | -12.2 |
| Cc1ccc(-c2nn(-c3ccc(F)cc3)cc2C(=O)N2CCN(C3CCS(=O)(=O)C3)CC2)cc1 (centres unmarked) | -61.6 |
| CCn1c(=O)c2ccccc2n(Cc2ccc([N+](=O)[O-])cc2)c1=O | -77 |
| N#Cc1cc(-c2ccccc2)nnc1Sc1ccc(F)cc1 | 28.9 |
| O=C(CNC(=O)c1cccc(N2C(=O)c3ccccc3C2=O)c1)Nc1ccc(F)c(F)c1 | 4.85 |
| COc1ccc(COCC(O)CN2CCCCC2)cc1OC.Cl (centres unmarked) | 16.6 |
| O=C1C(=Cc2cccn2-c2ccccc2)C(=O)c2ccccc21 | 12.1 |
| CCc1cccc(NC(=O)CCCN2C(=O)C(c3ccccc3)Oc3cccnc32)c1 (centres unmarked) | -2.79 |
| COC(=O)c1ccc(COC(=O)c2ccc(-n3cnnn3)cc2)o1 | -32.3 |
| Fc1cccc(NC(=S)N2CCCCC2)c1 | 6.54 |
| O=C(Nc1ccc(/C=C/c2nc3ccccc3o2)cc1)c1cccc(C(F)(F)F)c1 | 0.151 |
